Experimental data from PubChem BioAssay AID662 (National Center for Advancing Translational Sciences (NCATS), 2007).
Hit rate of the full screen: of about 71,000 compounds, about 1,800 (2.5%) were called active. Inconclusive results, whose numbers are uncertain, are shown with a selection of clear calls. Calls come from the whole dose curve; as a rule, active = well fitted activation curve with a large enough effect in the signal ratio, with a control signal flat (not every such curve was filed as active); inconclusive = small, poorly fitted or top-dose-only effect, or effect the other way, or a change in a side signal; inactive = flat fitted curve, though single readings scatter; the % refers to the signal ratio. A potency beside an inconclusive call is a rough fit, not a confirmed value.

assay: Cell signaling CRE-BLA (Fsk stim); settings: CHO CRE-bla reporter (cAMP response element driving beta-lactamase), forskolin EC10, beta-lactamase ratio; activity change, negative = inhibition: at 38.2 µM (top of the series) unless noted; for activity change, negative = inhibition: % of control where 0% means no effect
Procedure, shortened: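 CHO CRE-bla cells, overnight plating in Opti-MEM with 0.5% dialyzed FBS; cpd titration + EC10 NKH 477, 3 h 37 °C; CCF4 2 h RT; ex 405/em 460 vs 530 ratio → %Activity, AC50.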
Potency is the fitted concentration of half-maximal effect; tags give direction and shape of the fitted curve.

Compound | activity change, negative = inhibition | Potency
Cc1cccc(NS(=O)(=O)c2ccc(C)c(C(=O)OCC(=O)Nc3cc(C)on3)c2)c1 | inconclusive: -22.3% | –
COC(=O)c1cccc(NC(=O)c2nn(C)c(=O)c3ccccc23)c1 | – | inconclusive: 12.6 µM [rising, single point]
N#Cc1nc(-c2ccco2)oc1NCc1ccc(F)cc1 | – | inconclusive: 10 µM [rising, partial curve]
CCN(c1ccccc1)S(=O)(=O)c1cccc(C(=O)O)c1 | – | inconclusive: 3.98 µM [falling, single point]
CCN(CC)C(=O)CSc1nnc(-c2ccccn2)n1-c1ccc(C)c(C)c1 | inconclusive: 21.8% | –
CCOC(=O)c1c(C)nc2cc(C)ccn12 | – | inconclusive: 10 µM [rising, partial curve]
CSc1nc(N)c2ncn([C@H]3O[C@H](COP(=O)(O)OP(=O)(O)OP(=O)(O)O)[C@@H](O)[C@@H]3O)c2n1 | inconclusive: 4.11% | –
O=C1CN2CCN(CC2)CC(=O)Nc2ccc(cc2)S(=O)(=O)c2ccc(cc2)NC(=O)CN2CCN(CC2)CC(=O)Nc2ccc(cc2)S(=O)(=O)c2ccc(cc2)N1 | inactive: 1.45% [at 7.6 µM] | –
CS(=O)(=O)N(CC(=O)NCc1ccccn1)Cc1ccc(Cl)cc1 | inactive: -9.91% | –
CN1CCN(c2ncc3nc(-c4cccc(C#N)c4)c(=O)n(C)c3n2)CC1 | – | active: 12.6 µM
COC(=O)C1=C(NC(=O)c2cccc(C)c2)CCS1 | inconclusive: 130% | –
Cc1ccc(Cn2ncc3c(N4CCN(c5ccccc5C)CC4)ncnc32)cc1 | inconclusive: 5.52% [cytotoxic] | –
CSc1nc(NCc2ccco2)c2c3c(sc2n1)CN(C)CC3 | inactive: 4.59% | –
Cc1ccc(-c2nc3ccccc3o2)cc1NC(=O)c1ccc2c(c1)OCO2 | inactive: -26.6% | –
COc1ccc(C(=O)N(CN2CCCC2=O)c2ccc(C)cc2)cc1 | inconclusive: 3.19% | –
COc1ccc(C(OC(=O)c2ccco2)C(=O)NCc2ccco2)cc1 (stereo not given) | inactive: 2.2% | –
COc1ccc2nc(NCCCNC(=O)c3cc(OC)c(OC)c(OC)c3)c(C#N)cc2c1 | – | inconclusive: 7.94 µM [rising, partial curve]
Cc1nc(N2CCN(Cc3nc4ccccc4[nH]3)CC2)c2oc3ccccc3c2n1 | – | active: 7.94 µM
CC(C)(C)Oc1ncc(Br)c(OC(C)(C)C)n1 | inconclusive: 5.84% | –
O=C(c1ccco1)n1nc(NCc2ccccc2)nc1NCc1ccccc1 | – | inconclusive: 12.6 µM [rising, single point]
Cc1nnc(NC(=O)C(C)Sc2nncn2C)s1 (stereo not given) | inactive: -14.3% | –
CN(C)C(=O)[C@H]1C[C@@H]1[C@H](NC(=O)OCc1ccccc1)c1ccccc1 | inactive: -17.4% | –
CCOC(=O)c1sc2ncnc(N3CCN(C(=O)OCC)CC3)c2c1C | inconclusive: 22.3% | –
COc1ccc(N(CC(=O)Nc2cc(Cl)ccc2OC)S(=O)(=O)c2c(C)noc2C)cc1 | – | inconclusive: 5.01 µM [rising, full curve]
N=C(N)SCCc1ccc(CCSC(=N)N)cc1 | inactive: -6.03% | –
COc1ccc(-c2[nH]ncc2Oc2ccccc2OC)c(O)c1 | inconclusive: -30.3% | –
COc1ccccc1Nc1nc(N)nc(CSc2nc(C)cc(C)n2)n1 | – | active: 10 µM

Compound | activity change, negative = inhibition | Potency
Cc1c(N=CC=Nc2c(C)n(C)n(-c3ccccc3)c2=O)c(=O)n(-c2ccccc2)n1C | inconclusive: -25.4% [at 7.6 µM] | –
COC(=O)[C@@]1(Cc2ccc(OC)cc2)[C@H]2c3cc(C(=O)N4CCCC4)n(Cc4ccc(S(C)(=O)=O)cc4)c3C[C@H]2CN1C(=O)c1ccccc1 | inactive: -15.8% | –
O=C(CCCn1c(=O)c2ccccc2n(CC(=O)NCc2ccco2)c1=O)NCc1ccco1 | inconclusive: 15.1% | –
CCn1c(SCc2ccccc2)nnc1-c1cccs1 | inactive: -1.07% | –
COc1cc(C2CC(=O)N3CN(c4ccccc4C)CSC3=C2C#N)cc(OC)c1OC (stereo not given) | inactive: 5.34% | –
CCNc1ncc2nc(-c3cc(F)cc(F)c3)c(=O)n(CCC#N)c2n1 | – | inconclusive: 2.51 µM [rising, full curve]
COc1ccc(N=C2SC(CC(=O)Nc3ccccc3)C(=O)N2CC2CCCO2)cc1 (stereo not given) | inconclusive: -29.8% | –
CCOC(=O)C1=C(C)NC(SCC(=O)OC)=C(C#N)C1c1ccc(C(=O)OC)cc1 (stereo not given) | inconclusive: 28.4% | –
O=C(c1ccccc1)c1cccn1CC(=O)N1CCN(C2CCCCC2)CC1 | inconclusive: -1.51% | –
CC(=O)c1cccc(S(=O)(=O)N(Cc2cc3cc4c(cc3[nH]c2=O)OCCO4)CC2CCCO2)c1 (stereo not given) | inactive: 8.79% | –
O=C(Oc1ccc(/C=N/O)cc1)c1ccccc1 | inactive: -4.92% | –
Cn1c(=O)cc(N2CCc3ccccc32)[nH]c1=O | – | inconclusive: 12.6 µM [rising, single point]
Cc1cccc2cc(CN(Cc3ccc(F)cc3)C(=O)N(C)C)c3nnnn3c12 | – | inconclusive: 10 µM [rising, partial curve]
CC1(C)NC(=O)N(CC(O)CN2C(=O)NC(C)(C)C2=O)C1=O | inconclusive: -10.7% | –
Cc1cccc(-n2nnc(C(=O)NCc3ccco3)c2N)c1 | inconclusive: 22.6% | –
CCOC(=O)c1sc(NC(NC(=O)c2ccco2)(C(=O)OC)C(F)(F)F)nc1C (stereo not given) | – | inconclusive: 10 µM [rising, single point]
CCOCC(O)CS(=O)(=O)c1ccccn1 (stereo not given) | inconclusive: -19.4% [at 7.6 µM] | –
COc1ccc(N2CCN(c3ccc(NC(=O)c4ccc5c(c4)OCO5)cc3C#N)CC2)cc1 | inconclusive: -6.45% | –
COc1cc2c(=O)n(CC3CCCO3)c(=O)n(CC(=O)Nc3ccc(F)cc3F)c2cc1OC (stereo not given) | inactive: 11% | –
COc1ccc(OC)c2[nH]c(=O)c(CCNS(=O)(=O)c3ccc(C)cc3)cc12 | – | inconclusive: 10 µM [rising, partial curve]
CCCc1noc2c1C(c1ccoc1)C(C#N)=C(N)N2 (stereo not given) | – | inconclusive: 3.98 µM [rising, partial curve]
COc1ccc2[nH]cc(C(=O)CN3CCCCC3)c2c1 | inconclusive: 9.71% | –
Cc1cc(-c2nnco2)c(C)n1-c1ccc(F)cc1 | inconclusive: 45.3% | –
Cc1ccc(S(=O)(=O)NCc2ccncc2)cc1 | inconclusive: 12.7% | –
N#Cc1cccc(NC(=O)c2nc(-c3ccccc3)n(-c3ccccc3)n2)c1 | inconclusive: -18% | –
COc1ccccc1-c1ccc2ncnc(N3CCN(C)CC3)c2c1 | inactive: 14.9% | –
COC(=O)[C@@]1(Cc2ccc(OC)cc2)[C@H]2c3cc(C(=O)N(C)C)n(CCN4CNCC4=O)c3C[C@H]2CN1C(=O)c1ccccc1 | inactive: -1.42% | –

Compound | activity change, negative = inhibition | Potency
O=c1[nH]c2cc(Cl)ccc2c(O)c1-c1cccc(Oc2ccccc2)c1 | inconclusive: -22.7% | –
COc1ccc(C2CC(=O)c3cnc(NC(=O)c4ccccc4)nc3C2)c(OC)c1 (stereo not given) | inconclusive: 4.41% | –
Nc1c(C(=O)NC2CCCC2)c2nc3ccccc3nc2n1N | – | active: 12.6 µM
COc1ccccc1CNC(=O)c1cnc2sccn2c1=O | – | inconclusive: 10 µM [rising, partial curve]
COc1cccc(-c2nccc(NCc3ccccc3)n2)c1 | inactive: -6.25% | –
CCNc1ncc2nc(C)c(=O)n(C3CC3)c2n1 | inactive: 16.2% | –
Cn1c(CN2CCCCC2)c(C#N)c2ccccc21 | – | inconclusive: 25.1 µM [falling, single point]
O=C(Cc1c(C(=O)O)[nH]c2ccccc12)Nc1ccc2c(c1)OCO2 | inactive: 10.3% | –
CCOc1ccc(C(=O)Nc2ccc3c(c2)OCO3)cc1OCC | inactive: -5.25% | –
Cn1c(=O)[nH]c(=O)c2c1ncn2CCCc1ccccc1 | inconclusive: 20.9% | –
CCN(CCCNC(=O)CCc1nc(-c2ccc(C)cc2)no1)c1cccc(C)c1 | inconclusive: 5.82% | –
Cc1cc(NC(=O)c2ccc(S(=O)(=O)N(C)C)cc2)no1 | inconclusive: 5.67% | –
C[N+]12CCC(CC1)[C@@H](OC(=O)C(O)(c1ccccc1)c1ccccc1)C2 | inactive: 2.92% [at 17.1 µM] | –
CCc1cc(=O)oc2cc(C)c3c(C)coc3c12 | – | inconclusive: 2.51 µM [rising, single point]
Brc1ccc(-c2nn3c(-c4ccco4)nnc3s2)o1 | inconclusive: -7.88% | –
COc1ccccc1CNc1ncnc2ccc(-c3ccccc3C#N)cc12 | – | inconclusive: 2.51 µM [rising, partial curve]
COC(=O)[C@@]1(Cc2ccc(F)cc2)[C@H]2c3cc(C(=O)N4CCCC4)n(Cc4ccc(C)o4)c3C[C@H]2CN1C(=O)c1ccccc1 | inactive: -8.78% | –
CCOC(=O)c1[nH]c(C)c(C(=O)Nc2cc(Cl)ccc2C)c1C | – | inconclusive: 7.94 µM [rising, partial curve]
CC(C)Cn1cc(C(=O)N2CCN(c3ccccn3)CC2)c2c3ccccc3n(C)c2c1=O | inconclusive: 3.34% | –
CC1CCCCC1NC(=O)CSc1nncs1 (stereo not given) | – | inconclusive: 3.16 µM [falling, partial curve]
CCN(CC)S(=O)(=O)c1ccc(N2CCCC2)c(C(=O)OCC(=O)/C(C#N)=C(\C)N)c1 | – | inconclusive: 25.1 µM [rising, single point]
O=C(CCN1CCOCC1)Nc1ccc2c(c1)CCC2 | inconclusive: -5% | –
CCN(CC)S(=O)(=O)c1ccc2oc(C(=O)NC(C)C)c(C)c2c1 | – | inconclusive: 12.6 µM [rising, single point]
COc1ccc(CCn2c(NCc3ccco3)nc3c2c(=O)[nH]c(=O)n3C)cc1 | inconclusive: 9.28% | –
Cc1cc2occ(CC(=O)O)c2cc1C | – | inconclusive: 5.01 µM [falling, single point]
C=CCn1cnc2c(c1=O)c1nc3ccccc3nc1n2/N=C/c1cc(OC)c(OC)c(OC)c1 | – | active: 1.58 µM
